In PubChem BioAssay AID463173 (ICCB-Longwood Screening Facility, Harvard Medical School, 2010) one finds survival data, which are given here for 88 compounds.

The whole screen tested about 52,000 compounds, of which about 1,700 (3.3%) were called active. Cut-off read from the data, not from the text of the source: active = survival mostly below about 52% (no sharp cut-off); inactive = mostly above about 56%. The list shows a part of the results.

For this experiment, the system named is Wild type. The experiment is described as follows: growth inhibition of S. aureus wild type versus tarO mutant, primary screen, teichoic acid synthesis inhibitors, RN4220, OD600 (AID 463173). Conditions: S. aureus RN4220 wild type/DeltatarO growth, OD600, 18 h, hits give low values, screened at 18.75 µg/mL (by protocol).
Regarding `O=C(CCSCc1cccc(Cl)c1)N1CCN(c2ccc(Cl)cc2)CC1`, the survival is inactive: 80%.
Next, `COc1ccc(CCNC(=O)CCCCn2c(=O)c3ccccc3n(CC(=O)Nc3c(C)cccc3C)c2=O)cc1OC`: inactive: 142%; `C#CCn1c(=NC(=O)c2ccc3c(c2)OCCO3)sc2cc(OC)c(OC)cc21`: inactive: 73%.
For `CCOc1ccc(NS(=O)(=O)c2ccc(C(=O)N(C)C)s2)cc1`, the survival was inactive: 67%.
On to `O=C(c1cccc(Cl)c1)N1c2nc(-c3ccco3)nn2C2(CCCCC2)[C@@H]2CCCC[C@@H]21`, for which the survival was inactive: 79%.
Next, `Cc1nn(-c2ccc(N3CCCCC3)nn2)c(C)c1CCC(=O)Nc1ccc(F)cc1F`: inactive: 135%; `COc1cc(OC)cc(N2C(=O)N(Cc3ccc(C(C)(C)C)cc3)c3ccccc3S2(=O)=O)c1`: inactive: 64%; `COc1ccc(S(=O)(=O)N2CCC(C(=O)Nc3ccccc3)CC2)cc1OC`: inactive: 70%.
As for `CCOC(=O)c1c(C)[nH]c(C)c1S(=O)(=O)NCC(=O)Nc1cccc(C#N)c1`, the figure is inactive: 121%; as for `COC(=O)c1scc(-c2ccc(C)cc2)c1S(=O)(=O)N1CCN(c2ccccc2)CC1`, inactive: 64%; as for `COc1cccc(NC(=O)CC(=O)Nc2ccc3nc4n(c(=O)c3c2)CCCCC4)c1`, inactive: 84%.
In the case of `Cc1nc2ccc(S(=O)(=O)CCC(=O)Nc3ccc(Cl)cc3)cc2s1`, the survival is inactive: 89%.
Next, `COc1ccc(OC)c(CNC(=O)c2ccc3c(c2)c(C)c(C)n3Cc2ccc(Cl)cc2)c1`: inactive: 82%; `Cc1ccc(C)c(CN2C(=O)C(O)(c3c(C)[nH]c4ccccc34)c3ccccc32)c1` (stereo not drawn): inactive: 69%.
In the case of `O=C(C1CCCN(S(=O)(=O)c2cccc3nsnc23)C1)N1CCN(c2ccccc2)CC1` (stereo not drawn), the survival was inactive: 86%.
Regarding `CCOc1ccc(NC(=O)c2c(NCc3cccc(OC)c3OC)sc3c2CCC3)cc1`, the survival was inactive: 71%.
As for `CCc1ccc(NC(=O)CN(c2ccc(Cl)cc2)S(=O)(=O)c2ccsc2C(=O)OC)cc1`, the figure is inactive: 159%; as for `CC1(C)C/C(=N\O)C(C(O)c2ccccc2)C(C)(C)N1` (stereo not drawn), inactive: 104%.
Next, `Nc1c(C(=O)Nc2ccccc2Cl)c2ccccn2c1C(=O)c1ccccc1`: inactive: 101%; `Cc1cc(N2CCC(C)CC2)nc2ccc(NC(=O)Cc3c(F)cccc3Cl)cc12`: inactive: 84%.
Next, `Cc1ccc(Cn2cc(S(=O)(=O)c3cccc(Cl)c3)c(=O)c3cc(F)c(N4CCCCC4)cc32)cc1`: inactive: 77%; `CCOC(=O)N1CCN(C(=O)CN(c2ccccc2F)S(=O)(=O)c2ccc(C)cc2)CC1`: inactive: 69%.
Consider `COC(=O)c1c(NC(=O)Cc2coc3cc(C)ccc23)sc2c1CCC2`, for which the survival is inactive: 106%.
As to `Cc1cc(C)cc(NC(=O)CSc2nc(=O)n(CCN3CCOCC3)c3c2CCC3)c1`, the survival is inactive: 68%.
As for `O=C(O)C1C2CCCCC21` (stereo not drawn), the figure is inactive: 109%; as for `CCOC(=O)c1noc2nc(C)n(CC(=O)NC(C)CC)c(=O)c12` (stereo not drawn), inactive: 134%.
Take `O=C(NCc1cccs1)c1ccc2c(c1)N(Cc1cccc(F)c1)C(=O)c1ccccc1S2`: the survival is inactive: 87%.
Next, `CCOc1ccccc1CNC(=O)c1ccc2c(c1)N(Cc1ccc(C)cc1)CCS2`: inactive: 79%.
Regarding `CC(=O)c1cccc(NC(=O)CSc2nc(=O)n(Cc3ccco3)c3c2CCC3)c1`, the survival was inactive: 68%.
As for `Cc1oc(-c2cccc(Cl)c2)nc1CS(=O)(=O)CC(=O)NC(C)CCc1ccccc1` (stereo not drawn), the figure is inactive: 21%; as for `CCCCN(CC)C(=O)c1nn(C)c2c1CSc1ccccc1-2`, inactive: 108%; as for `Cc1cc(C)n(C(=O)CCCC(=O)O)n1`, inactive: 96%.
For the compound `CCOc1ccc(/C=C/c2nc(C#N)c(NCc3ccccc3)o2)cc1`, the survival was inactive: 84%.
Next, `C#CCNC(=O)NC1CCCN(S(=O)(=O)c2ccc(C)cc2)C1` (stereo not drawn): inactive: 112%; `O=C(CCC1N=C2c3ccccc3N=C(SCc3ccc(F)cc3)N2C1=O)NCCc1ccccc1` (stereo not drawn): inactive: 113%.
`O=C(CSc1ccc(-c2cccs2)nn1)Nc1ccccc1C(F)(F)F`: the survival was inactive: 78%.
On to `Cc1ccc(NC(=O)C2CCCN(C(=O)c3cnn(-c4ccc(F)cc4)c3-n3cccc3)C2)c(Cl)c1` (stereo not drawn), for which the survival was inactive: 72%.
Next, `Cc1ccccc1CNC(=O)C(C)N(c1ccccc1)S(C)(=O)=O` (stereo not drawn): inactive: 81%; `O=C(NCCc1ccccc1Cl)C1CCN(c2nc3ccccc3nc2C(F)(F)F)CC1`: active: 10%; `CC1(C)O[C@H]2[C@@H](O1)[C@@H](C(=O)Nc1ccccc1C(F)(F)F)O[C@@H]1OC(C)(C)O[C@@H]12`: inactive: 107%.
For `COc1ccc(-n2c(-c3ccco3)nc3c(cnn3-c3ccc(Cl)cc3)c2=O)cc1`, the survival was inactive: 90%.
As for `COc1ccc(Cl)cc1NC(=O)C(C)Sc1nc2c(c(=O)[nH]1)CCCC2` (stereo not drawn), the figure is inactive: 74%; as for `COc1ccccc1NC(=O)c1c(NCc2ccc(C)o2)sc2c1CCCCC2`, inactive: 73%.
Next, `CCOC(=O)N1CCc2c(sc3c2C(=O)NC(c2cc(OC)c(OC)c(OC)c2)N3)C1` (stereo not drawn): inactive: 65%.
As for `O=C(Cc1ccc(Cl)cc1)N1CCOCC1`, the figure is inactive: 89%; as for `COc1ccc(-c2cc(C(F)(F)F)n3nc(-c4ccccc4)cc3n2)cc1OC`, inactive: 84%.
On to `CCc1ccc(NC(=O)Cn2c(=O)n(CCC(C)C)c(=O)c3cccnc32)cc1`, for which the survival was inactive: 86%.
Consider `CCCc1nn2c(=O)cc(COC(=O)c3ccccc3NC(=O)COc3ccccc3)nc2s1`, for which the survival was inactive: 87%.
Next, `N#C/C(=C\c1cn(CC(=O)NCC2CCCO2)c2ccccc12)C(=O)NCC1CCCO1` (stereo not drawn): inactive: 92%; `CCOC(=O)c1cc(S(=O)(=O)Nc2cc(F)ccc2C)[nH]n1`: inactive: 75%.
Next, `CCc1ccccc1NS(=O)(=O)c1ccc2c(c1)CC(=O)N2`: inactive: 116%; `CC(=O)Nc1nonc1-c1nnc(SCc2ccccc2F)n1C`: inactive: 84%; `CC(=O)c1ccc(N2CCN(c3ncnc4c3c(-c3ccccc3)cn4-c3ccc(Cl)cc3)CC2)cc1`: inactive: 65%.
Consider `Cc1ccc(/C=C/c2onc(C)c2S(=O)(=O)N2CCC(C(=O)Nc3ccccc3C(F)(F)F)CC2)cc1`, for which the survival was inactive: 83%.
As for `CCCCSc1nnc2n(-c3ccc(OC)cc3)c(=O)c3c4c(sc3n12)COC(C(C)C)C4` (stereo not drawn), the figure is inactive: 74%.
`CC(=O)c1ccc(NC(=O)c2cc(C)nc3c2c(C)nn3-c2ccc(C)cc2)cc1`: the survival is inactive: 99%.
As for `Cc1cccc2c1N(Cc1ccccc1OCCC(C)C)C(=O)C2=O`, the figure is active: 25%.
In the case of `COc1cccc(CNC(=O)Cn2nc(-c3ccc(Cl)cc3)ccc2=O)c1`, the survival was inactive: 131%.
Next, `COc1ccc2c(c1)c(=O)c(S(=O)(=O)c1ccccc1)cn2CC(=O)Nc1ccc(C)c(Cl)c1`: inactive: 85%; `CCn1c(SCCN2CCOCC2)nnc1C1CCCCC1`: inactive: 122%; `COc1ccc(-n2c(=O)c3c(c4cc(OC)ccc4n3C)n(Cc3cccc(C)c3)c2=O)cc1`: inactive: 85%.
Next, `O=C(CSc1nnc(-c2ccco2)n1CC1CCCO1)c1ccccc1` (stereo not drawn): inactive: 104%; `CCOC(=O)c1c(C)[nH]c(C)c1S(=O)(=O)N1CCCC(C(=O)NCc2ccc(N(C)C)cc2)C1` (stereo not drawn): inactive: 71%.
Next, `CCOC(=O)c1ccc(-c2ccc(C=C(C#N)C#N)o2)cc1`: inactive: 112%; `CC(C)CC(=O)Nc1nnc(S(=O)(=O)N(C)Cc2ccc(Cl)cc2)s1`: inactive: 78%; `COC(=O)/C(C#N)=C/c1ccc(-c2ccccc2)o1`: inactive: 117%.
In the case of `CCC(C(=O)Nc1cccc(-c2nc3cccnc3s2)c1C)c1ccccc1` (stereo not drawn), the survival is inactive: 117%.
Regarding `COc1ccc(-n2cc(C(=O)NCCc3cc(OC)ccc3OC)c3ccccc3c2=O)cc1`, the survival was inactive: 84%.
As for `CC1=C(C(=O)Nc2ccc(C)cc2C)C(c2cccs2)n2nc(SCc3cccc(C)c3)nc2N1` (stereo not drawn), the figure is inactive: 126%; as for `CNC(=O)CSc1nc2cc3c(cc2cc1C)OCCO3`, inactive: 110%.
On to `CNC(=O)CSc1cn(CC(=O)N2CCCCCC2)c2ccccc12`, for which the survival is inactive: 107%.
Next, `N#Cc1c(N)nc2c(c1-c1ccccc1)CCCC2`: inactive: 130%.
As for `CC(C)CCn1nnnc1CN1CCN(Cc2ccc3c(c2)OCO3)CC1`, the survival is inactive: 100%.
As for `COc1ccc(OC)c(NC(=O)CN2C(=O)CC(C)Sc3ccccc32)c1` (stereo not drawn), the survival is inactive: 81%.
As to `O=C(CCOc1ccccc1)N(Cc1cccnc1)c1nc2ccc(Cl)cc2s1`, the survival was inactive: 82%.
Turning to `CCOc1ccc(NC(=O)CSc2oc(-c3ccc(F)cc3)nc2S(=O)(=O)c2ccc(C)cc2)cc1`, the survival is inactive: 89%.
As for `CCOC(=O)c1ccc(NC(=O)CSc2nc3cc4ccccc4cc3[nH]2)cc1`, the figure is inactive: 84%; as for `Cc1nc2nc(NC(=O)c3ccc(C(C)(C)C)cc3)[nH]n2c(=O)c1Cc1ccccc1`, inactive: 115%; as for `Clc1ccccc1-c1nnc(COc2ccccc2)o1`, inactive: 75%.
As to `Cc1ccc(CN(Cc2ccco2)C(=O)c2oc3cc(Br)ccc3c2C)cc1`, the survival was inactive: 85%.
As to `CC(C)CNC(=S)N1CCC(c2nc(-c3ccc(F)cc3)no2)CC1`, the survival was inactive: 114%.
Next, `COc1ccc(CNC(=O)Cn2ccc3cc(S(=O)(=O)N4CCCCC4)ccc32)cc1OC`: inactive: 72%.
As for `CC1Cc2ccccc2N1C(=O)Cn1nnc(-c2ccccc2F)n1` (stereo not drawn), the figure is inactive: 114%.
As for `Cc1ccc(-n2c(=O)c3c4c(sc3n(Cc3cc(=O)n5ccccc5n3)c2=O)CCC4)cc1C`, the figure is inactive: 151%.
As to `O=C1N(Cc2ccccc2Cl)c2ccccc2C1(O)c1c[nH]c2ccccc12` (stereo not drawn), the survival is inactive: 84%.
For the compound `CC1=C(C(=O)OCC2CCCCC2)C(c2ccc(Cl)cc2)CC(=O)N1` (stereo not drawn), the survival was inactive: 97%.
Next, `CSc1ncc(C(=O)Nc2ccc(C)c(Cl)c2)c(-c2ccccc2)n1`: inactive: 101%.
Next, `CCOC(=O)c1cc(C)n(CC2CCC(C(=O)Nc3ccccc3OC)CC2)c1C` (stereo not drawn): inactive: 94%.
